Structures are written as SMILES. Several values for one entry are separate records, joined by “and”; a condition that tells them apart may be missing. Identical values can stand only once. About 40 (0.2%) of roughly 16,000 compounds were called active. About 1% were inconclusive and are not listed. Calls follow the shape of the dose curve; as a rule, active = well fitted activation curve with a large enough effect; inconclusive = small, poorly fitted or top-dose-only effect, or another doubt; inactive = no such curve, though single readings can be large or run the other way. Some of the results follow.
% is scaled to controls: 0 for no effect and ±100 for the full control effect.

This experiment has as its target Rap guanine nucleotide exchange factor 4 (Homo sapiens) (UniProt Q8WZA2). Kind of experiment: Validation qHTS for agonist of cAMP-regulated guanine nucleotide exchange factor 4 (EPAC2).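 Also: exchange makes BODIPY-GDP fluorescence drop when released from Rap1B; series mostly up to about 150 µM.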 The conditions noted are these: EPAC2 Rap1B BODIPY-GDP exchange, fluorescence; activation: active compounds read high. In a few lines: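 Signal normalized against 6.5 mM cAMP as agonist control. Mix of EPAC2 (100 nM), RAP1B-BODIPY-GDP (250 nM) and GDP (50 uM) was read kinetically at 480/540 nm, every 5 min over 30 min, after 5 min room-temperature incubation with compound.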
UniProt Q8WZA2, sequence (Q8WZA2 whole entry, looked up): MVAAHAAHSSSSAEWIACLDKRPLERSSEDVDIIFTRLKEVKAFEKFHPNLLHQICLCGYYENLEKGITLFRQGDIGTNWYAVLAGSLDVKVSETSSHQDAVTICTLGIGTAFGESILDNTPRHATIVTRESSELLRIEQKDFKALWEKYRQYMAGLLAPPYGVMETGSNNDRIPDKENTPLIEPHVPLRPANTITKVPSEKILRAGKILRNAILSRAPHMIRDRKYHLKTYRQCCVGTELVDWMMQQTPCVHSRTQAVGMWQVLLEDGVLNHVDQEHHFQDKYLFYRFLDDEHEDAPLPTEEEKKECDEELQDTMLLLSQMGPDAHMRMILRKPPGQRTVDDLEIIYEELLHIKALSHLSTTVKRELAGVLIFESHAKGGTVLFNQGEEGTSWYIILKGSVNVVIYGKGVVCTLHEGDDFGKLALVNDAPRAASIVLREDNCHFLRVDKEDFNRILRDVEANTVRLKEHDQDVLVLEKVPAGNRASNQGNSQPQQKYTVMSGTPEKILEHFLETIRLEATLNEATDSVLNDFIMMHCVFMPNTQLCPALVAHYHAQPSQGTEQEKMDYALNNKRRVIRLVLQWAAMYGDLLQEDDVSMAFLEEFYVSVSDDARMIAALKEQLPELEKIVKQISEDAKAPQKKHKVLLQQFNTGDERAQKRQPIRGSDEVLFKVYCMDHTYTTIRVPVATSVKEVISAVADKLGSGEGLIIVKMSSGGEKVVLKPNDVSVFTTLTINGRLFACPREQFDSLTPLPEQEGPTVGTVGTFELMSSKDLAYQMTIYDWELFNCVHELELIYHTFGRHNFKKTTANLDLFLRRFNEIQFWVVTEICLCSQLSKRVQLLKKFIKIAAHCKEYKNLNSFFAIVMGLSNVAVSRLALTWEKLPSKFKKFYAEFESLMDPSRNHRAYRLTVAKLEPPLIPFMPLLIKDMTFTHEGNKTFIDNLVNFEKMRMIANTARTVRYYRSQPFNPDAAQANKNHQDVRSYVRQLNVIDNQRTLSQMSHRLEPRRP
For orientation: In qHTS, concentration-response curves come from the screen itself.
As for `c1cncc(OC2CCN(Cc3ccc4c(c3)CN(Cc3ccc5c(c3)OCCO5)CCO4)CC2)c1`, the activation is inactive: -7.51%.

With `Cn1c(=O)c(-c2ccc(Cl)cc2)nc2cnc(Nc3ccccc3)nc21`, the activation is inactive: -6.53%.

Turning to `O=c1c(-c2ccccc2)nc2cnc(Oc3cccc(Cl)c3)nc2n1C1CC1`, the activation is inactive: 4.2%.

`O=c1ccn([C@H]2C[C@H](O)[C@@H](CO)O2)c(=O)[nH]1`: the activation is inactive: -3.76%.

Regarding `CN(C)CC(C)(O)c1ccc2c(c1)CN(Cc1cnn(-c3ccccc3)c1)CCO2` (stereo not drawn), the activation was inactive: -2.18%.

On to `Cc1nc2cnc(N3CCOCC3)nc2n(CCc2ccccc2)c1=O`, for which the activation is inactive: -5.3%.

Turning to `N[C@@]1(C(=O)O)CN[C@@H](C(=O)O)C1`, the activation is inactive: -1.1%.

Turning to `CC(C)[C@@H](C)/C=C/[C@@H](C)[C@H]1CC[C@H]2/C(=C/C=C3\C[C@@H](O)CC[C@@H]3C)CCC[C@]12C`, the activation is inactive: -66.2%.

Turning to `NS(=O)(=O)Cc1noc2ccccc12`, the activation was inactive: -7.64%.

`CCC1(C2CCN(C(=O)c3cc4ccccc4o3)CC2)NC(=O)N(CCc2scnc2C)C1=O` (stereo not drawn): the activation is inactive: -9.8%.

In the case of `Cc1nc2cnc(N3CCOCC3)nc2n(Cc2cccs2)c1=O`, the activation was inactive: -11.6%.

Consider `COc1ccc2[nH]cc(CCNc3nc(-c4cccc(NS(C)(=O)=O)c4)nc4ccccc34)c2c1`, for which the activation was inactive: -14.5%.

`CC[C@H](/C=C/[C@@H](C)[C@H]1CC[C@H]2C3CC=C4C[C@@H](O)CC[C@]4(C)C3CC[C@]12C)C(C)C` (stereo partly drawn): the activation is inactive: -11.4%.

In the case of `CN(C)CCN(Cc1ccc(Cl)cc1)c1ccccn1`, the activation is inactive: -1.37%.

Consider `O=C(c1ccc(N2CCC(NCCCn3ncc4ccccc43)CC2)cc1)N1CCc2ccccc2C1`, for which the activation was inactive: -4.39%.

`CCCCC[C@H](O)/C=C/[C@@H]1[C@@H](CC(=O)CCCCC(=O)O)[C@@H](O)C[C@H]1O`: the activation was inactive: -4.2%.

On to `Cc1onc(-c2c(Cl)cccc2Cl)c1C(=O)NC1C(=O)N2C1SC(C)(C)C2C(=O)O` (stereo not drawn), for which the activation is inactive: 1.77%.

`C=C(CO)C1Cc2c(ccc3c2OC2COc4cc(OC)c(OC)cc4C2C3=O)O1` (stereo not drawn): the activation was inactive: -7.49%.

As for `O=C(/C=C/c1ccc(F)cc1)NCC1Cc2cccc(-c3ncccn3)c2O1` (stereo not drawn), the activation was inactive: -13.9%.

As for `COc1ccc2c(c1)C(=O)N(CCc1ccc(S(=O)(=O)NC(=O)NC3CCCCC3)cc1)C(=O)C2(C)C`, the activation is inactive: -4.49%.

Turning to `O=C(Oc1ccccc1)N1CCC2(CCCN(c3ncccn3)C2)CC1`, the activation was inactive: -11.2%.

With `O=c1c(-c2ccc(F)cc2)nc2cnc(N3CCOCC3)nc2n1-c1ccccc1`, the activation is inactive: -11.9%.

As to `CCn1c(-c2ccccc2F)nc2cc(NC(C)=O)cc(C(=O)N3CCC[C@H]3C(=O)OC)c21`, the activation was inactive: -5.06%.

Turning to `CC1CN(CCNC(=O)C2CCCc3c2[nH]c2ccccc32)Cc2ccccc2O1` (stereo not drawn), the activation is inactive: -12%.

For `Cc1cn([C@H]2C[C@H](N=[N+]=[N-])[C@@H](CO)O2)c(=O)[nH]c1=O`, the activation was inactive: -6.59% and inactive: 5.71% and inactive: 10%.

For the compound `COC(=O)[C@@H](N)CS`, the activation is inactive: -8.69%.

For the compound `COc1ccc([C@@H]2Sc3ccccc3N(CCN(C)C)C(=O)[C@@H]2OC(C)=O)cc1`, the activation was inactive: -3.77% [middle of 4 runs].

For `O=C(Nc1cccc(F)c1)N1CCC2(CC1)CCN(C(=O)c1ccco1)CC2`, the activation was inactive: -8.83%.

On to `COC(=O)C1OC(=O)C2O[C@@]23[C@]2(C)C(OC(C)=O)CC4C(C)(C)C(=O)CC[C@]4(C)C2CC[C@@]13C` (stereo partly drawn), for which the activation was inactive: -5.23%.

`Cc1ccc(CN2CCOc3ccc(CN4CCC(O)(c5cccnc5)CC4)cc3C2)cc1C`: the activation is inactive: -0.247%.

As for `C[C@H](NC[C@H](O)CP(=O)(O)Cc1ccccc1)c1ccc(Cl)c(Cl)c1`, the activation was inactive: 2.7% and inactive: -6.49%.

With `Cc1oc(-c2cccc(NC(=O)c3ccccn3)c2)nc1CNC(=O)c1ccc(C(F)(F)F)cc1`, the activation is inactive: -17.1%.

With `COCC(=O)Nc1cc(C(=O)NC2CCc3ccccc32)c2c(c1)nc(-c1ccncc1)n2C` (stereo not drawn), the activation was inactive: -24.2%.

Regarding `C=C1CC[C@H](O)CC1=C/C=C1\CCC[C@]2(C)[C@@H]([C@H](C)/C=C/[C@H](C)C(C)C)CC[C@@H]12`, the activation was inactive: -70.8%.

Turning to `Cc1cccc(CNc2ccnc(-c3ccccc3Cl)n2)c1`, the activation was inactive: -10.4%.

Regarding `CN[C@H]1CCc2cc(OC)c(OC)c(OC)c2-c2ccc(N[C@@H]3CCCCNC3=O)c(=O)cc21`, the activation was inactive: -5.73%.

With `NCCC(O)(P(=O)(O)O)P(=O)(O)O`, the activation was inactive: -9.23%.

`COc1ccc(Oc2ncc3nc(C)c(=O)n(-c4ccc(OC)cc4)c3n2)cc1`: the activation was inactive: -20.4%.

`CC1CCC2(OC1)OC1CC3C4CCC5CC(O)CCC5(C)C4=CCC3(C)C1C2C` (stereo not drawn): the activation was inactive: 5.96%.

Take `CC(C)C[C@@H](CC#N)N1CCN(Cc2ccccc2)CCC1=O`: the activation was inactive: -11.1%.

For the compound `CC[C@@H](C)[C@H](N)C(=O)O`, the activation was inactive: -29.2%.

In the case of `COCc1ccc(CN2Cc3ccccc3OC(c3ccccc3OC)C2)o1` (stereo not drawn), the activation is inactive: 2.14%.

As to `Cc1cc2c(c(-c3cnccn3)c1)OC(CNC(=O)c1cc(C(C)C)[nH]n1)C2` (stereo not drawn), the activation is inactive: -26.9%.

In the case of `CC(=O)Oc1cc(OC(C)=O)c2c(=O)cc(-c3ccc(OC(C)=O)c(OC(C)=O)c3)oc2c1`, the activation is inactive: -0.746%.

In the case of `C=C1CC[C@H](O)C/C1=C\C=C1/CCC[C@]2(C)[C@@H]([C@H](C)CCCC(C)C)CC[C@@H]12`, the activation was inactive: -70.5%.

In the case of `COc1cccc(-c2cncnc2NCCc2cnc[nH]2)c1`, the activation was inactive: 1.28%.

In the case of `COc1cc2nc(N3CCN(C(=O)[C@H]4CCCO4)CC3)nc(N)c2cc1OC`, the activation was inactive: -12.7%.

Take `Cc1cc(C(C#N)c2ccc(Cl)cc2)c(Cl)cc1NC(=O)c1cc(I)cc(I)c1O` (stereo not drawn): the activation was inactive: 5.57%.

Take `CN1CCN(c2ncc3nc(-c4ccc(Cl)cc4)c(=O)n(CCC#N)c3n2)CC1`: the activation is inactive: -10.1%.

On to `c1ccc(Nc2cc(-c3ccoc3)ncn2)cc1`, for which the activation was inactive: -14.3%.

`CNC(=O)[C@@H]1C[C@H](Sc2nc3ccccc3[nH]2)CN1Cc1cccc(C(F)(F)F)c1`: the activation was inactive: -5.81%.

For `CC(C[N+](C)(C)C)OC(N)=O` (stereo not drawn), the activation is inactive: -16.6% and inactive: -0.85% and inactive: -26.6%.

On to `CCCCCCc1ccc(N2C[C@H](CCCCC)[C@@H](CC(=O)NCc3ccccc3)C2=O)cc1`, for which the activation was inactive: -4.7%.

As for `Cc1cc(C(=O)NCc2nc(-c3cccc(NC(=O)c4ccccc4)c3)oc2C)nc(C)n1`, the activation is inactive: -20.5%.

Regarding `C=C[C@](C)(O)CCC1C(=C)CC(OC(C)=O)C2C(C)(C)CCCC12C` (stereo partly drawn), the activation was inactive: -17%.

With `Cc1nc2cnc(Oc3ccccc3)nc2n(C2CC2)c1=O`, the activation is inactive: 9.34%.

In the case of `Cc1cccc(CNC(=O)c2cnn(-c3nccc(-c4cc5ccccc5o4)n3)c2C2CC2)n1`, the activation was inactive: -8.18%.

Take `O=S1(=O)[C@H]2C[C@@H]3C=C[C@@]2(CN1Cc1ccc(F)cc1)O3`: the activation is inactive: -13.5%.

With `CN(C)CCCC1(c2ccc(F)cc2)OCc2cc(C#N)ccc21` (stereo not drawn), the activation is inactive: -12.2%.

In the case of `Nn1nnc2ccccc21`, the activation was inactive: -18.1%.

As to `COc1cccc(Nc2ncc3nc(-c4cccs4)c(=O)n(C[C@H]4CCCO4)c3n2)c1`, the activation was inactive: 7.92%.

With `CN1CCN(c2ncc3nc(-c4ccc(Cl)cc4)c(=O)n(C4CC4)c3n2)CC1`, the activation is inactive: -0.224%.

On to `CC(C)[N+](C)(C)CC(O)COc1cccc2ccccc12` (stereo not drawn), for which the activation was inactive: -12.1%.

Consider `CCCC(CCC)C(=O)O`, for which the activation is inactive: 4.12% and inactive: -5.36% and inactive: -5.48%.

On to `CCCCCCCC/C=C\CCCCCCCCN`, for which the activation was inactive: -15%.

Turning to `CC(C)=CCc1c2c(c(O)c3c(=O)c(O)c(-c4ccccc4)oc13)C=CC(C)(C)O2`, the activation was inactive: -22.9%.

In the case of `O=C(O)c1ccc(NC2OC[C@@H](O)[C@H](O)[C@H]2O)cc1` (stereo partly drawn), the activation was inactive: -17.9%.

Regarding `COc1cccc(-c2cc(N(C)Cc3ccco3)ncn2)c1`, the activation was inactive: -1.38%.

In the case of `CCCNC(=O)N1N=C(c2ccc(N)cc2)c2cc3c(cc2[C@H]1C)OCO3`, the activation is inactive: -14.7%.

In the case of `Cc1ncc2c(c1CNS(=O)(=O)c1cccs1)CCN(C(=O)/C=C/c1cc(F)cc(F)c1)C2`, the activation was inactive: 4.69%.

In the case of `CO`, the activation was inactive: -11.5%.

For `CNC(=O)C[C@@H](N)C(=O)N[C@@H](C(=O)N[C@@H]1C(=O)N2[C@@H]1SC(C)(C)[C@@H]2C(=O)O)c1ccc(O)cc1`, the activation is inactive: 2.53%.

`CC(C)(C)C1CCC(=O)N(CCC#N)CC1` (stereo not drawn): the activation is inactive: -4.04%.

For the compound `CN1CCN(c2ncc3ncc(=O)n(C[C@H]4CCCO4)c3n2)CC1`, the activation was inactive: -6.51%.

On to `O=C(O)CNC(=O)C(CS)Cc1ccccc1` (stereo not drawn), for which the activation was inactive: -7.2% and inactive: -15.7%.

In the case of `N#Cc1ccc(CN2CCC3(CC2)CCN(C(=O)c2cc(C(F)(F)F)cc(C(F)(F)F)c2)CC3)cc1`, the activation is inactive: -29.5%.

Consider `C#C[C@]1(O)CC[C@H]2[C@H]3CCC4=Cc5oncc5C[C@]4(C)[C@@H]3CC[C@]21C`, for which the activation is inactive: -18.3%.

For `COc1ccc(CNC(=O)[C@@H]2CC=C[C@@H]3CCN(Cc4ccccc4)C(=O)[C@@H]32)cc1`, the activation is inactive: -0.865%.

As for `NCCC(=O)O`, the activation is inactive: -18.9% and inactive: -6.24%.

With `O=C1/C(=C/c2ccsc2)CC/C1=C\c1cccs1`, the activation is inactive: -3.6%.

Regarding `Cc1ccccc1-c1nc(NCCN2CCOCC2)c2ccccc2n1`, the activation was inactive: -10.2%.

For `CCNc1ncc2ncc(=O)n(C[C@H]3CCCO3)c2n1`, the activation is inactive: -17.5%.

As to `COc1cc(CNCc2cc3cc(C)ccc3nc2-c2ccc(F)cc2)cc(OC)c1OC`, the activation is inactive: -14.9%.

These data come from PubChem BioAssay AID1645887 (National Center for Advancing Translational Sciences (NCATS), 2021).
